What all share (experiment): co-IP; immunoprecipitation of endogenous proteins from NP cells cultured under normoxia or hypoxia (1% O2) for 24 h; Protein A/G PLUS-Agarose beads; Western blot; preimmune rabbit IgG as negative control
For orientation: In western blotting, separated proteins are transferred to a membrane and probed.

Sequences of proteins named here, by UniProt entry; tags and fusion partners are left off.
UniProt Q9EPW1: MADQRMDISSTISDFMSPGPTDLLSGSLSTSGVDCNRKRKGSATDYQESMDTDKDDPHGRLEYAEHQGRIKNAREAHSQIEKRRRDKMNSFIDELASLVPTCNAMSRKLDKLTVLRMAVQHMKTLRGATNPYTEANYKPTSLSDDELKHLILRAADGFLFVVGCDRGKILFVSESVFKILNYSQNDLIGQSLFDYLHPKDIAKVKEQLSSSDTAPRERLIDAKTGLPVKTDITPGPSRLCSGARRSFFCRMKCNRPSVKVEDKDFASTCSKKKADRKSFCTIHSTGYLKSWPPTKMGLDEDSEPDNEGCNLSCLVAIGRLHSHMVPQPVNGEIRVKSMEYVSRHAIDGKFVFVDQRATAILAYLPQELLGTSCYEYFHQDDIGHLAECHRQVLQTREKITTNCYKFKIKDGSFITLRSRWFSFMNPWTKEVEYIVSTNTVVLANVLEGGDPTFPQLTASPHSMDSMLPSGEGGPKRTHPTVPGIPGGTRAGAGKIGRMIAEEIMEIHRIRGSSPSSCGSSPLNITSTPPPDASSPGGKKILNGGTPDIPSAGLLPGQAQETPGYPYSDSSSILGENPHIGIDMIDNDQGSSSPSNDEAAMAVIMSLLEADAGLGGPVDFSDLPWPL
UniProt O35800: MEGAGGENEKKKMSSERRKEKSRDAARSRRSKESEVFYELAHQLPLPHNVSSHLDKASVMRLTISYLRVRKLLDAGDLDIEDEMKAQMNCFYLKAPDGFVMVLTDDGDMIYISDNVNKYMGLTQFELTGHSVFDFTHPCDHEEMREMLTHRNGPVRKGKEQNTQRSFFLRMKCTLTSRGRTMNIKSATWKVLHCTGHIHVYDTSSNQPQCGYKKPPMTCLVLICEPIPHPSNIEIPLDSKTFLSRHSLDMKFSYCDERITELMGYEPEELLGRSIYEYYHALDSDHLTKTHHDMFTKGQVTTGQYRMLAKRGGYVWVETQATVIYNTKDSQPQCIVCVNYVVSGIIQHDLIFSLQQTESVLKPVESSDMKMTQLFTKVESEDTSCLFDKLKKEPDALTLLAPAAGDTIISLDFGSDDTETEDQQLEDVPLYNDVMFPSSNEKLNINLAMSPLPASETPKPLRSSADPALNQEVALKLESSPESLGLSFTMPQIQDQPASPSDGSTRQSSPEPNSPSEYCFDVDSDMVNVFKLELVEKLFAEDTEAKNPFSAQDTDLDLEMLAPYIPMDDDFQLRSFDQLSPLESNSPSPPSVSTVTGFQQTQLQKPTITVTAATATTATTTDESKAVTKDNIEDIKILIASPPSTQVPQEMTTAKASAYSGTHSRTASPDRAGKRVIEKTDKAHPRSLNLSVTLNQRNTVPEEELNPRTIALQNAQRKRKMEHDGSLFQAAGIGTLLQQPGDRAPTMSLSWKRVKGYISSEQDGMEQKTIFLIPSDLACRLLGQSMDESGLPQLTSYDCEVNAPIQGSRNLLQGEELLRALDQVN
UniProt P41739: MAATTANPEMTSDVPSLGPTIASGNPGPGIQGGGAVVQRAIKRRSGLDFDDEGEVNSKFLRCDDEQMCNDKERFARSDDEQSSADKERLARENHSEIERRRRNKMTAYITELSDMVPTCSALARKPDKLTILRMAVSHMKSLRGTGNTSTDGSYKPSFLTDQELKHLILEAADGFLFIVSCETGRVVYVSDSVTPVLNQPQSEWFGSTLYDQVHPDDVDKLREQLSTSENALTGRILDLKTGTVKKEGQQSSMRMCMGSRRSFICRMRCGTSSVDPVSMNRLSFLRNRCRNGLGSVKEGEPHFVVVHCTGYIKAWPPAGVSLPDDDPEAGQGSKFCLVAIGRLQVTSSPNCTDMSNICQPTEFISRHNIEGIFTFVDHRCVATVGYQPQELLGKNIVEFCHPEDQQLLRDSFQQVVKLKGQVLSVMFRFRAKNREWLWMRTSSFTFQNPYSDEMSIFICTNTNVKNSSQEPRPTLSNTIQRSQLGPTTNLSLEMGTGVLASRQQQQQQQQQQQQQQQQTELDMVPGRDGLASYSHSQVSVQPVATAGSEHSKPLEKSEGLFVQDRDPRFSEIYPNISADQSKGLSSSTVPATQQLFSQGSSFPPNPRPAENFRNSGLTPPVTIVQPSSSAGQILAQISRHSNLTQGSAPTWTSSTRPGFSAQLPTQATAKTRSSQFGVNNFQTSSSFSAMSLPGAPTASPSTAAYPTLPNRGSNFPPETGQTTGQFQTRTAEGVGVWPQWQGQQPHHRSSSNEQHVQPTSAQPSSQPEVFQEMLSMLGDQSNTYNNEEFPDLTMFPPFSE

Assay [1] deals with BMAL1 (brain and muscle ARNT-like1) (not stated (endogenous in rat or mouse NP cells)) (UniProt Q9EPW1).
Assay [2] concerns the target T1, CLOCK (not stated (endogenous in rat or mouse NP cells)) (UniProt Q9WVS9).
T1 sequence: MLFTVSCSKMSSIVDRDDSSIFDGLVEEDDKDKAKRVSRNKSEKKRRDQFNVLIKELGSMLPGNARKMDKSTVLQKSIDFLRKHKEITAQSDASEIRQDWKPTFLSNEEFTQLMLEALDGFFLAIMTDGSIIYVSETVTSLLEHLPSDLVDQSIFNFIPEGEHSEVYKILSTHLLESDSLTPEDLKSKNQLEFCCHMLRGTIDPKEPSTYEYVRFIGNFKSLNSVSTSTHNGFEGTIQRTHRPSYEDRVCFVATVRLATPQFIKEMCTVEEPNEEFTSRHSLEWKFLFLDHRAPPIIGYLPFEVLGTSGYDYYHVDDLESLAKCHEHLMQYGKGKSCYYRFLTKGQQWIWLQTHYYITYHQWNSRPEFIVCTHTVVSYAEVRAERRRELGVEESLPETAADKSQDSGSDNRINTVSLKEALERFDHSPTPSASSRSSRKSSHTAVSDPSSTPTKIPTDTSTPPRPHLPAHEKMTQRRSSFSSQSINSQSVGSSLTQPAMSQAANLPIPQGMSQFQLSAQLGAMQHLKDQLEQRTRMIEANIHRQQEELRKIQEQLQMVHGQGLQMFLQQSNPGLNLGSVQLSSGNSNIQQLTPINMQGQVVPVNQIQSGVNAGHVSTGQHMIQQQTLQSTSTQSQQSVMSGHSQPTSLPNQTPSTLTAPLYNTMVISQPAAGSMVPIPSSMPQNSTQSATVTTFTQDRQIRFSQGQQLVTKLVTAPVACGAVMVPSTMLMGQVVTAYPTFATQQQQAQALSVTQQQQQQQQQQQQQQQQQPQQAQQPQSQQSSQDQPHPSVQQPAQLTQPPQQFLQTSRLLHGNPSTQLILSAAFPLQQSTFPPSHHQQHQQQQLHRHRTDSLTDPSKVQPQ

Assay [3] has as its target HIF-1α (not stated (endogenous in rat or mouse NP cells)) (UniProt O35800).

These are yes or no findings as the source states them, for the method shown. In cells and extracts the contact can be indirect. Some results given as binding are weak or reduced against the parent protein; the word gives no strength.

Regarding HIF-1α (from UniProt O35800 1-825), the binding result in assay [1] and in assay [2] was “no binding” in each case. As to HIF-1β/ARNT (from UniProt P41739 1-800), in assay [3], the binding entry was “binds”. Regarding “BMAL1 (brain and muscle ARNT-like1) (from UniProt Q9EPW1 1-626)”, the results for the binding result in assay [2] and in assay [3] were “binds” and “no binding”, respectively.

B1: CLOCK (protein, UniProt Q9WVS9 1-862)
chain: MLFTVSCSKMSSIVDRDDSSIFDGLVEEDDKDKAKRVSRNKSEKKRRDQFNVLIKELGSMLPGNARKMDKSTVLQKSIDFLRKHKEITAQSDASEIRQDWKPTFLSNEEFTQLMLEALDGFFLAIMTDGSIIYVSETVTSLLEHLPSDLVDQSIFNFIPEGEHSEVYKILSTHLLESDSLTPEDLKSKNQLEFCCHMLRGTIDPKEPSTYEYVRFIGNFKSLNSVSTSTHNGFEGTIQRTHRPSYEDRVCFVATVRLATPQFIKEMCTVEEPNEEFTSRHSLEWKFLFLDHRAPPIIGYLPFEVLGTSGYDYYHVDDLESLAKCHEHLMQYGKGKSCYYRFLTKGQQWIWLQTHYYITYHQWNSRPEFIVCTHTVVSYAEVRAERRRELGVEESLPETAADKSQDSGSDNRINTVSLKEALERFDHSPTPSASSRSSRKSSHTAVSDPSSTPTKIPTDTSTPPRPHLPAHEKMTQRRSSFSSQSINSQSVGSSLTQPAMSQAANLPIPQGMSQFQLSAQLGAMQHLKDQLEQRTRMIEANIHRQQEELRKIQEQLQMVHGQGLQMFLQQSNPGLNLGSVQLSSGNSNIQQLTPINMQGQVVPVNQIQSGVNAGHVSTGQHMIQQQTLQSTSTQSQQSVMSGHSQPTSLPNQTPSTLTAPLYNTMVISQPAAGSMVPIPSSMPQNSTQSATVTTFTQDRQIRFSQGQQLVTKLVTAPVACGAVMVPSTMLMGQVVTAYPTFATQQQQAQALSVTQQQQQQQQQQQQQQQQQPQQAQQPQSQQSSQDQPHPSVQQPAQLTQPPQQFLQTSRLLHGNPSTQLILSAAFPLQQSTFPPSHHQQHQQQQLHRHRTDSLTDPSKVQPQ
For the molecule B1, the binding entry is recorded as “binds” in assay [1] and “no binding” in assay [3].

Source of the values: paper PMC5029610.
